Assay results taken from paper PMC4336329 (PLoS ONE, 2015).
Hit rate of the full screen: of about 310,000 compounds, about 14,000 (4.5%) showed an effect of 50% or more. The effect is printed as a negative number. The list shows a part of the results.

Each molecule was assayed against human ether-à-go-go-related gene (hERG) potassium channel (human, UniProt Q12809) (assay: primary screen, population patch clamp on CHO cells stably expressing hERG).
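Also: peak tail current of the secondary pulse compared with the same well before compound.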

human ether-à-go-go-related gene (hERG) potassium channel, sequence (Q12809 whole entry, looked up): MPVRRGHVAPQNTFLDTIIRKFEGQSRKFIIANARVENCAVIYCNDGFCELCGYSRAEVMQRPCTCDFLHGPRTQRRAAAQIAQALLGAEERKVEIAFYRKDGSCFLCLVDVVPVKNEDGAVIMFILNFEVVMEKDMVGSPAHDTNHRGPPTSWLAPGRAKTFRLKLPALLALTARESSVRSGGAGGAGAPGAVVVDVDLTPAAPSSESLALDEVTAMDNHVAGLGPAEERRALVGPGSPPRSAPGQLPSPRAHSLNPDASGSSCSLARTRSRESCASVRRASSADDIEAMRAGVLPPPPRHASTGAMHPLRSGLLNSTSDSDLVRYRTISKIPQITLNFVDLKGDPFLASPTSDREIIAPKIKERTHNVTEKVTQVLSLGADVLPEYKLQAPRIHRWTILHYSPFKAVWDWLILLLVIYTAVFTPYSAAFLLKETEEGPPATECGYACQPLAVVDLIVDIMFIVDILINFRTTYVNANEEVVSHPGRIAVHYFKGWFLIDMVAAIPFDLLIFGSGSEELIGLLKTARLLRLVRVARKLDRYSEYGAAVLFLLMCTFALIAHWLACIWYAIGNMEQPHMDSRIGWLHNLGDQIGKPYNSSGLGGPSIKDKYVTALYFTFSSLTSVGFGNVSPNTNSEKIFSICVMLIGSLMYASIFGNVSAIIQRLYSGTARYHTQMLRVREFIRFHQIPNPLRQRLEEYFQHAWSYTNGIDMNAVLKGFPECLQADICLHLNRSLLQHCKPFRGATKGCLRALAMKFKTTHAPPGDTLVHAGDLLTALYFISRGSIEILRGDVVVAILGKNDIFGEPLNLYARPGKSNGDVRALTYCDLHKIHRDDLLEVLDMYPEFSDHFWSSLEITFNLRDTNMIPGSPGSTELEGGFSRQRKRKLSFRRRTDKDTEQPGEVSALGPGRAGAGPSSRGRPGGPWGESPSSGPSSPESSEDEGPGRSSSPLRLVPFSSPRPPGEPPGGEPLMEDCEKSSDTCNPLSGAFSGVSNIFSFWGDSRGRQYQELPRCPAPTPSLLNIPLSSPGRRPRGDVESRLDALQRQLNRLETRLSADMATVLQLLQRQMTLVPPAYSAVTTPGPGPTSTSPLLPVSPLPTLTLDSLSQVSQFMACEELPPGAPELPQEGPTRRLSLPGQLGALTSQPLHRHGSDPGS

| Compound | hERG current change (%, negative = inhibition) at 10uM [%] |
| --- | --- |
| CN(C)S(=O)(=O)c1cccc(C(=O)OCC(=O)c2ccc3c(c2)NC(=O)CO3)c1 | -11.8 |
| O=C1c2ccccc2C(=O)N1CCCn1c(=O)oc2ccccc21 | 11.4 |
| Cc1cccc(C)c1OCC(=O)N1CC2(C)CC1CC(C)(C)C2 (stereo not drawn) | -7.94 |
| Cc1sccc1/C=N/NC(=O)c1ccco1 | 7.32 |
| CCOC(=O)N1CCN(C(=O)COc2ccc([N+](=O)[O-])cc2)CC1 | -43 |
| COC(=O)c1ccc(C)c(NC(=O)CCNC(=O)c2ccc([N+](=O)[O-])cc2)c1 | -46.5 |
| COc1cc(/C=N\NC(=O)c2ccc(=O)[nH]n2)cc(OC)c1OC | 17.3 |
| Cc1ccc(N)cc1N | 8.58 |
| CN(Cc1ccc(F)cc1)C(=O)COc1ccc2ccccc2c1 | -8.79 |
| COc1cc(CNCCO)ccc1OC1CCCC1.Cl | -6.23 |
| COC(=O)C(Cc1ccc(O)cc1)NC(=O)C1CCN(S(=O)(=O)c2ccc(C)cc2)CC1 (stereo not drawn) | 12.4 |
| CCCCNS(=O)(=O)c1ccc(NS(=O)(=O)c2c(C)cc(C)cc2C)cc1 | -11.3 |
| O=C(N/N=C/c1ccnc2ccccc12)c1ccccc1O | 11.1 |
| COc1ccccc1NC(=O)N1c2ccc(F)cc2CCC1C (stereo not drawn) | -8.65 |
| CC(C)c1cc(C(=O)Nc2cc(Br)ccc2O)no1 | 17.9 |
| COc1ccc(Br)cc1/C=C\C(=O)NCc1cccnc1 | -27.2 |
| FC(F)Oc1ccc(N=C2SCC3CCCCN23)cc1 (stereo not drawn) | -16.7 |
| Cn1c2ccccc2c(=O)c2c(O)cccc21 | 15.8 |
| NC(=NCCc1c[nH]c2ccccc12)NS(=O)(=O)c1cc(F)ccc1F | 8.26 |

| Compound | hERG current change (%, negative = inhibition) at 10uM [%] |
| --- | --- |
| CN(C)S(=O)(=O)c1cccc(NC(=O)COC(=O)CCC(=O)c2ccc(F)cc2)c1 | -36 |
| O=C(NCc1ccncc1)C(=O)N/N=C/c1ccc(OCc2ccccc2)cc1 | -35.5 |
| CCOc1ccc(S(=O)(=O)/N=C(/Nc2ccc(OC)cc2)c2ccccc2)cc1 | 4.41 |
| CC(C)c1ccc(C(O)c2nc3ccccc3n2C)cc1 (stereo not drawn) | 6.95 |
| Cc1cc(C(=O)N/N=C/c2cccc(OC(=O)c3ccco3)c2)n[nH]1 | 4.6 |
| CC(=O)N1CCN(CCN=CC2=C(O)CC(c3cccs3)CC2=O)CC1 (stereo not drawn) | 8.53 |
| Cc1oc(-c2ccc(Cl)cc2)nc1CN1CCC(C(=O)NCCCN2CCOCC2)CC1 | -26.5 |
| CSC(SC)=C(C(C)=O)C(=O)c1ccc(C)cc1 | 1.92 |
| COc1ccc(NC(=O)CCNC(=O)c2ccco2)c(OC)c1 | 5.35 |
| CC(=O)N1Cc2ccccc2CC1C(=O)N1CCN(c2ccccc2)CC1 (stereo not drawn) | -6.91 |
| CC(C)CCC(O)(c1ccccc1)C(CN1CCOCC1)c1ccccc1.Cl (stereo not drawn) | -1.36 |
| Cc1cc(-c2ccccc2)cc(-c2ccccc2)[n+]1CCc1ccccc1.[O-][Cl+3]([O-])([O-])[O-] | -76.5 |
| CCN(CC(=O)NCc1cccs1)C(=O)c1ccc(S(=O)(=O)Nc2ccccc2Cl)cc1 | -26.8 |
| Nc1c(Cl)cc(C(=O)c2c3ccccc3[n+]([O-])n2CCC[NH3+])cc1Cl.[Cl-] | -20.9 |
| CCCCC(CC)CNC(=O)C1CCCN(S(=O)(=O)c2cnc[nH]2)C1 (stereo not drawn) | 3.45 |
| CC(=O)C(C(C)=O)C1(O)C(=O)c2ccccc2C1=O | 11.8 |
| COc1ccccc1NC(=O)C[n+]1ccccc1C.[Cl-] | 15.3 |
| CC(=O)c1ccc(N2CCC(c3cc(-c4ccc(Cl)cc4)n[nH]3)CC2)c([N+](=O)[O-])c1 | -20.4 |
| O=C(CSc1nc2ncccc2[nH]1)NCCc1ccccc1 | 2.3 |

| Compound | hERG current change (%, negative = inhibition) at 10uM [%] |
| --- | --- |
| Cc1ccccc1C(=O)NCCOc1ccccc1Cl | 5.9 |
| CCNC(=O)CN(c1ccc(Cl)cc1)S(=O)(=O)c1ccccc1 | -14.4 |
| Cn1ccc(NC(=O)Nc2ccc(Cl)cc2Cl)n1 | 0.0608 |
| O=C(CSc1nnc(-c2cccnc2)n1Cc1ccco1)NCc1ccc2c(c1)OCO2 | -33.2 |
| COc1ccc(CNC(=S)Nc2cccc(OC)c2)cc1 | -15.5 |
| CCOC(CNC(=O)c1cc2c(=O)n(CC)c3ccccc3c2s1)OCC | 12.7 |
| CC(C)CN(c1ccccc1)S(=O)(=O)c1nnc(NC(=O)C(C)C)s1 | 8.25 |
| OCCNc1nc2ccccc2nc1NCCO | 18.4 |
| Cc1ccc(CNC(=O)C(=O)NCCCn2ccnc2)cc1 | 4.1 |
| CC(C)n1nc(C(=O)NCc2ccc3c(c2)OCO3)c2ccccc2c1=O | -11 |
| CSCCC(NC(=O)c1ccco1)C(=O)NCC1CCCO1 (stereo not drawn) | 9.8 |
| CCN1CCN(c2ccc(S(=O)(=O)N3CCCCC3)cc2NC(=O)CC(NC(C)=O)c2ccccc2)CC1 (stereo not drawn) | 23.6 |
| O=C(c1cc([N+](=O)[O-])ccc1Cl)N1c2ccccc2Sc2ccccc21 | 5.91 |
| Cc1ccc(NS(=O)(=O)c2ccc(C(=O)NCCCN3CCCC3=O)cc2)cc1 | 11.2 |
| COc1ccc(C(=O)Nc2cccnc2)cc1S(=O)(=O)N1CCOCC1 | -2.77 |
| Cc1ccc(CNC(=O)CNC(=O)c2ccco2)cc1 | 22.7 |
| Nn1c(Cc2ccccc2F)nnc1SCC(=O)N1CC(=O)Nc2ccccc21 | 8.77 |
| CC(=O)Nc1ccc(S(=O)(=O)N2C3CCCC2CC(NC(=O)C2CCCCC2)C3)cc1 (stereo not drawn) | 6.78 |
| CSc1nc(-c2ccccc2)nn1C(=O)c1ccc(Cl)cc1 | 5.32 |
